T1: IL-15Rbeta/gamma (UniProt P14784 27-551; P31785 23-369, limits assumed)
T1 sequence (looked up) 1: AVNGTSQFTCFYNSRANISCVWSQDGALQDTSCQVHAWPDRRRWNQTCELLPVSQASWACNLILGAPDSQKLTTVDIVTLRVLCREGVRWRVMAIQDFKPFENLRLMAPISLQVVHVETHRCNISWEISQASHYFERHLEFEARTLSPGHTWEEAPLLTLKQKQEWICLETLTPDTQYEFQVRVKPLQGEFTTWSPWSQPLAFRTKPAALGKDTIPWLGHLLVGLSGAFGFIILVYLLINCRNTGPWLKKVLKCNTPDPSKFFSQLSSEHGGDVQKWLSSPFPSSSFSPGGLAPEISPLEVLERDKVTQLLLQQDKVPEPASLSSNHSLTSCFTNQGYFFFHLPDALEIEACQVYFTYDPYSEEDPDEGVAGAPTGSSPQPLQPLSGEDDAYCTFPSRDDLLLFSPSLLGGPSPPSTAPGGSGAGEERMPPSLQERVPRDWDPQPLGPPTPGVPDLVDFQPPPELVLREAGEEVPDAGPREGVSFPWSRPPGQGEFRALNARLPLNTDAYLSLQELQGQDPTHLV
T1 sequence (looked up) 2: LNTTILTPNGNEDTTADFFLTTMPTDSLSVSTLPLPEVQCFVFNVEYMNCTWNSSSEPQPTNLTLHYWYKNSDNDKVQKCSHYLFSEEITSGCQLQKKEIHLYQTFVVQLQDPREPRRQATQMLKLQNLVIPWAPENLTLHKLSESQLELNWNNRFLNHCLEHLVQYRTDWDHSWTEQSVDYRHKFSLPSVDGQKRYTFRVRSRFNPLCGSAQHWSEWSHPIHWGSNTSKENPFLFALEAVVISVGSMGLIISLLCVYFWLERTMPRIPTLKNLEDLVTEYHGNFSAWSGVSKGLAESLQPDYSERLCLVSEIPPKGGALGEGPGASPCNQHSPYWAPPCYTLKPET


Molecular target: T1, IL-15Rbeta/gamma
Experiment: cell-based or functional assay

increase in pSTAT5 signaling | Binder
> 7 fold | membrane-bound IL-15-IL-15Rα sushi domain chimeric receptor monomer (FAS transmembrane domain, N-terminal Myc tag) (other) EQKLISEEDLAGS[no letters for about 120 residues]SGGGSGGGGSGGGGSGGGGSGGGSITCPPPMSVEHADIWVKSYSLYSRERYICNSGFKRKAGTSSLTECVLNKATNVAHWTTPSLKCIRDGGGGSGGGGSRSNLGWLCLLLLPIPLIVWVKRKEVQKT
> 7 fold | membrane-bound IL-15-IL-15Rα sushi domain chimeric receptor dimer (IL-7 CPT mutein transmembrane domain, N-terminal Myc tag) (other) EQKLISEEDLAGS[no letters for about 120 residues]SGGGSGGGGSGGGGSGGGGSGGGSITCPPPMSVEHADIWVKSYSLYSRERYICNSGFKRKAGTSSLTECVLNKATNVAHWTTPSLKCIRDGGGGSGGGGSPILLTCPTISILSFFSVALLVILACVLW
